Results on one molecule are retold here after US20200407462A1 (MINERVA BIOTECHNOLOGIES, published 2020).

The target of this experiment is T1, C-10 peptide (C-10 PSMGFR).
T1 construct: also called PSMGFR C-10
T1 peptide: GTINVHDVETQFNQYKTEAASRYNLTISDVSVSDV
The experiment is described as follows: binding to peptides.

B1: huMNC2-scFv-Fc (Fc fusion)
chain: DAAQPAEVQLVESGGGLVKPGGSLRLSCAASGFTFSGYAMSWVRQAPGKGLEWVSTISSGGTYIYYPDSVKGRFTISRDNAKNSLYLQMNSLRAEDTAVYYCARLGGDNYYEYFDVWGKGTTVTVSSGGGGSGGGGSGGGGSDIVLTQSPASLAVSPGQRATITCRASKSVSTSGYSYMHWYQQKPGQPPKLLIYLASNLESGVPARFSGSGSGTDFTLTINPVEANDTANYYCQHSRELPFTFGGGTKVEIKRT[human IgG1 Fc cut from this listing]
notes: For IHC it was biotinylated through its Fc region; also called humanized single chain form of MNC2
Consider B1, for which the binding result is “no binding”.
